Measurements taken from US20260022143A1, “Cyclic Peptide Inhibitors of IL-23” (JANSSEN PHARMACEUTICA NV, priority 2022, published 2026).
Part of at least one peptide drawing is inferred or uncertain, most often the ends. At least one compound was matched to its structure with a doubt left. Starred links: 1 amine or outer side, 2 acyl side, 3 side chain; linkers in the order of their positions; H or OH if unused. Positions of bridges follow the written chain, without caps; N, C: chain ends. Non-standard residues stand in square brackets, D forms with d. Residues, ends and D or L forms follow the SMILES beside them. Groups on a side chain read outwards from the residue. *: point of attachment. Me3N+(CH2)2O(CH2)2O(CH2)2CO = C[N+](C)(C)CCOCCOCCC(=O)*; X34 = C[N+](C)(C)CCOCCOCCC(=O)N(CC[N+](C)(C)C)CC*; Trp(7-Me) = Cc1cccc2c(C[C@H](N)C(=O)O)c[nH]c12; X28 = CCCCCCCCCCCCCCCC[N+](C)(C)CCc1cn(CC*)nn1; 3Oxa8azabicyclo(3.2.1)octane = C1CC2COCC1N2*; γGlu = O=C(O)[C@H](CCC(=O)[*:2])N[*:1]; 2Nal = N[C@@H](Cc1ccc2ccccc2c1)C(=O)O; AEF = NCCOc1ccc(C[C@H](N)C(=O)O)cc1; PEG6 = NCCOCCOCCOCCOCCOCCOCCC(=O)O; X32 = C(CCC*)CC[N+]12CCN(CC1)CC2; 3Pal = N[C@@H](Cc1cccnc1)C(=O)O; Myristoyl = CCCCCCCCCCCCCC(=O)*; Lys(Me) = CNCCCC[C@H](N)C(=O)O; X7 = COCCOCCOCCOCCOCCOCCC(=O)*; Pen = CC(C)(S)[C@H](N)C(=O)O; αMeK = C[C@](N)(CCCCN)C(=O)O; Thp = NC1(C(=O)O)CCOCC1; X3 = C[N+](C)(C)CCCCC*; AEEA = NCCOCCOCC(=O)O; X42 = O=C(O)CCCCCCCC*; Sar = CNCC(=O)O

Target: T1, IL-23R (Homo sapiens, UniProt Q5VWK5)
T1 construct: host or cells: HEK293
T1 sequence (Q5VWK5 24-629): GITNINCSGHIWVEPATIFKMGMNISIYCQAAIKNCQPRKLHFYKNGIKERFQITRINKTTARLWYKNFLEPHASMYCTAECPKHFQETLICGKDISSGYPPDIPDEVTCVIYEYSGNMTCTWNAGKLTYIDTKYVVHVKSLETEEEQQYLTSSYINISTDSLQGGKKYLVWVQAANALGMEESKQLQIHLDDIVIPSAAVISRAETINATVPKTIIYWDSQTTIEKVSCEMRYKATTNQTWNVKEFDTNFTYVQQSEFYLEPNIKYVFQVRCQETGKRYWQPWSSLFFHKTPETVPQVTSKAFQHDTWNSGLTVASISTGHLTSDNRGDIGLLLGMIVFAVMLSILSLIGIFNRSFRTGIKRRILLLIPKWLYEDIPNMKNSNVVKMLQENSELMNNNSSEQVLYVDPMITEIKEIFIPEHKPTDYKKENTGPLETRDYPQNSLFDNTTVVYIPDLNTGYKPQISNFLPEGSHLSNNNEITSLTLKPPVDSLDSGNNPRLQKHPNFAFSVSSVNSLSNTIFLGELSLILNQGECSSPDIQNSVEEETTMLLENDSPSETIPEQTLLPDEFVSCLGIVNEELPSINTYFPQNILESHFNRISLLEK
Test: IL23R Reporter Assay
Format: cell-based
Conditions: HEK293 cells containing IL-23R, IL-12RP1 and STAT-inducible firefly luciferase reporter; 10 ng/mL IL-23 (EC90); 5 h at 37° C.

Row | Structure (SMILES) | IC50
1 | CNC(=O)[C@H](Cc1c[nH]cn1)NC(=O)[C@H](CC(N)=O)NC(=O)[C@H](CCC(=O)O)NC(=O)[C@](C)(CCCCN)NC(=O)[C@H](Cc1ccc2ccccc2c1)NC(=O)[C@H](Cc1ccc(OCCN)cc1)NC(=O)[C@H]1NC(=O)[C@H](CCCCNC(C)=O)NC(=O)[C@H](Cc2c[nH]c3c(C)cccc23)NC(=O)[C@H]([C@@H](C)O)NC(=O)[C@H](CC(N)=O)NC(=O)[C@@H](NC(C)=O)C(C)(C)SSC1(C)C [compound 383] (Ac-[Pen]NT[Trp(7-Me)]K(Ac)[Pen][AEF][2Nal][αMeK]ENH-NHMe; disulfide 1-6) | 18 nM
2 | CCCCCCCCCCCCCCCC[N+](C)(C)CCc1cn(CCOc2ccc(C[C@H](NC(=O)[C@H]3NC(=O)[C@H](CCCCNC(C)=O)NC(=O)[C@H](Cc4c[nH]c5c(C)cccc45)NC(=O)[C@H]([C@@H](C)O)NC(=O)[C@H](CC(N)=O)NC(=O)[C@@H](NC(C)=O)C(C)(C)SSC3(C)C)C(=O)N[C@@H](Cc3ccc4ccccc4c3)C(=O)NC3(C(=O)N[C@@H](CCCCNC(C)=O)C(=O)N[C@@H](CC(N)=O)C(=O)N[C@@H](Cc4cccnc4)C(=O)N(C)CC(N)=O)CCOCC3)cc2)nn1 [compound 259] (Ac-[Pen]NT[Trp(7-Me)]K(Ac)[Pen]Y(X28)[2Nal][Thp]K(Ac)N[3Pal][Sar]-NH2; disulfide 1-6) | 270 nM
3 | CC(=O)NCCCC[C@@H]1NC(=O)[C@H](Cc2c[nH]c3c(C)cccc23)NC(=O)[C@H]([C@@H](C)O)NC(=O)[C@H](CC(N)=O)NC(=O)[C@@H](NC(C)=O)C(C)(C)SSC(C)(C)[C@@H](C(=O)N[C@@H](Cc2ccc(OCCN)cc2)C(=O)N[C@@H](Cc2ccc3ccccc3c2)C(=O)NC2(C(=O)N[C@@H](CCC(=O)O)C(=O)N[C@@H](CC(N)=O)C(=O)N[C@@H](Cc3cccnc3)C(=O)N(C)CC(=O)N3C4CCC3COC4)CCOCC2)NC1=O [compound 115] (Ac-[Pen]NT[Trp(7-Me)]K(Ac)[Pen][AEF][2Nal][Thp]EN[3Pal][Sar]-{3Oxa8azabicyclo(3.2.1)octane}; disulfide 1-6) | 2.6 nM
4 | CCCCCCCCCCCCCC(=O)N[C@@H](CCC(=O)NCCOCCOCC(=O)NCCOCCOCC(=O)NCCCC[C@@H]1NC(=O)[C@H](Cc2c[nH]c3c(C)cccc23)NC(=O)[C@H]([C@@H](C)O)NC(=O)[C@H](CCCCNC(=O)COCCOCCNC(=O)COCCOCCNC(=O)CC[C@H](NC(=O)CCCCCCCCCCCCC)C(=O)O)NC(=O)[C@@H](NC(=O)CCOCCOCC[N+](C)(C)C)C(C)(C)SSC(C)(C)[C@@H](C(=O)N[C@@H](Cc2ccc(OCCCCC[N+](C)(C)C)cc2)C(=O)N[C@@H](Cc2ccc3ccccc3c2)C(=O)NC2(C(=O)N[C@@H](CCCCN(C)C(C)=O)C(=O)N[C@@H](CC(N)=O)C(=O)N[C@@H](Cc3cccnc3)C(=O)N(C)CC(=O)N(C)C)CCOCC2)NC1=O)C(=O)O [compound 396, cPEG3aCO-Pen(3)-K(PEG2PEG2gEC14)-T-7MeW-K(PEG2PEG2gEC14)-Pen(3)-TMAPF-2Nal-THP-K(NMeAc)-N-3Pya-Sar-CON(Me)2] ({Me3N+(CH2)2O(CH2)2O(CH2)2CO}-[Pen]K([AEEA-AEEA-γGlu-Myristoyl])T[Trp(7-Me)]K([AEEA-AEEA-γGlu-Myristoyl])[Pen]Y(X3)[2Nal][Thp][Lys(Me)](Ac)N[3Pal][Sar]-NMe2; disulfide 1-6) | 880 nM

More lines, now with the values ahead:

Row | IC50 | Structure (SMILES)
5 | 3 nM | CC(=O)N(C)CCCC[C@@H]1NC(=O)[C@H](Cc2c[nH]c3c(C)cccc23)NC(=O)[C@H]([C@@H](C)O)NC(=O)[C@H](CC(=O)N(C)C)NC(=O)[C@@H](NC(=O)CCOCCOCC[N+](C)(C)C)C(C)(C)SSC(C)(C)[C@@H](C(=O)N[C@@H](Cc2ccc(OCCCCCC[N+]34CCN(CC3)CC4)cc2)C(=O)N[C@@H](Cc2ccc3ccccc3c2)C(=O)NC2(C(=O)N[C@@H](CCCCN(C)C(C)=O)C(=O)N[C@@H](CC(N)=O)C(=O)N[C@@H](Cc3cccnc3)C(=O)N(C)CC(=O)N(C)C)CCOCC2)NC1=O [compound 292, cPEG3aCO-Pen(3)-N(N(Me)2)-T-7MeW-K(NMeAc)-Pen(3)-Diazabiclyclooctane6F-2Nal-THP-K(NMeAc)-N-3Pya-Sar-CON(Me)2] ({Me3N+(CH2)2O(CH2)2O(CH2)2CO}-[Pen]D(NMe2)T[Trp(7-Me)][Lys(Me)](Ac)[Pen]Y(X32)[2Nal][Thp][Lys(Me)](Ac)N[3Pal][Sar]-NMe2; disulfide 1-6)
6 | 2.1 nM | COCCOCCOCCOCCOCCOCCC(=O)N(C)CCCC[C@@H]1NC(=O)[C@H](Cc2c[nH]c3c(C)cccc23)NC(=O)[C@H]([C@@H](C)O)NC(=O)[C@H](CC(N)=O)NC(=O)[C@@H](NC(C)=O)C(C)(C)SSC(C)(C)[C@@H](C(=O)N[C@@H](Cc2ccc(OCCN)cc2)C(=O)N[C@@H](Cc2ccc3ccccc3c2)C(=O)NC2(C(=O)N[C@@H](CCCCNC(C)=O)C(=O)N[C@@H](CC(N)=O)C(=O)N[C@@H](Cc3cccnc3)C(=O)N(C)CC(N)=O)CCOCC2)NC1=O [compound 124] (Ac-[Pen]NT[Trp(7-Me)][Lys(Me)](X7)[Pen][AEF][2Nal][Thp]K(Ac)N[3Pal][Sar]-NH2; disulfide 1-6)
7 | 3.2 nM | CC(=O)N(C)CCCC[C@@H]1NC(=O)[C@H](Cc2c[nH]c3c(C)cccc23)NC(=O)[C@H]([C@@H](C)O)NC(=O)[C@H](CC(=O)N(C)C)NC(=O)[C@@H](NC(=O)CCOCCOCC[N+](C)(C)C)C(C)(C)SSC(C)(C)[C@@H](C(=O)N[C@@H](Cc2ccc(OCCN(CC[N+](C)(C)C)C(=O)CCOCCOCC[N+](C)(C)C)cc2)C(=O)N[C@@H](Cc2ccc3ccccc3c2)C(=O)NC2(C(=O)N[C@@H](CCCCN(C)C(C)=O)C(=O)N[C@@H](CC(N)=O)C(=O)N[C@@H](Cc3cccnc3)C(=O)N(C)CC(=O)N(C)C)CCOCC2)NC1=O [compound 208, cPEG3aCO-Pen(3)-N(N(Me)2)-T-7MeW-K(NMeAc)-Pen(3)-AEF((Ch)cPEG3a)-2Nal-THP-K(NMeAc)-N-3Pya-Sar-CON(Me)2] ({Me3N+(CH2)2O(CH2)2O(CH2)2CO}-[Pen]D(NMe2)T[Trp(7-Me)][Lys(Me)](Ac)[Pen]Y(X34)[2Nal][Thp][Lys(Me)](Ac)N[3Pal][Sar]-NMe2; disulfide 1-6)
8 | 3 nM | CC(=O)N(C)CCCC[C@@H]1NC(=O)[C@H](Cc2c[nH]c3c(C)cccc23)NC(=O)[C@H]([C@@H](C)O)NC(=O)[C@H](CC(=O)N(C)C)NC(=O)[C@@H](NC(=O)CCOCCOCC[N+](C)(C)C)C(C)(C)SSC(C)(C)[C@@H](C(=O)N[C@@H](Cc2ccc(OCCCCCCCCC(=O)O)cc2)C(=O)N[C@@H](Cc2ccc3ccccc3c2)C(=O)NC2(C(=O)N[C@@H](CCCCN(C)C(C)=O)C(=O)N[C@@H](CC(N)=O)C(=O)N[C@@H](Cc3cccnc3)C(=O)N(C)CC(=O)N(C)C)CCOCC2)NC1=O [compound 236, cPEG3aCO-Pen(3)-N(N(Me)2)-T-7MeW-K(NMeAc)-Pen(3)-Y(C9OH)-2Nal-THP-K(NMeAc)-N-3Pya-Sar-CON(Me)2] ({Me3N+(CH2)2O(CH2)2O(CH2)2CO}-[Pen]D(NMe2)T[Trp(7-Me)][Lys(Me)](Ac)[Pen]Y(X42)[2Nal][Thp][Lys(Me)](Ac)N[3Pal][Sar]-NMe2; disulfide 1-6)
9 | 4.5 nM | CC(=O)NCCCC[C@@H]1NC(=O)[C@H](Cc2c[nH]c3c(C)cccc23)NC(=O)[C@H]([C@@H](C)O)NC(=O)[C@H](CC(N)=O)NC(=O)[C@@H](NC(C)=O)C(C)(C)SSC(C)(C)[C@@H](C(=O)N[C@@H](Cc2ccc(OCCN)cc2)C(=O)N[C@@H](Cc2ccc3ccccc3c2)C(=O)NC2(C(=O)N[C@@H](CCCCNC(=O)CCOCCOCCOCCOCCOCCOCCNC(C)=O)C(=O)N[C@@H](CC(N)=O)C(=O)N[C@@H](Cc3cccnc3)C(=O)N(C)CC(N)=O)CCOCC2)NC1=O [compound 41] (Ac-[Pen]NT[Trp(7-Me)]K(Ac)[Pen][AEF][2Nal][Thp]K([PEG6-Ac])N[3Pal][Sar]-NH2; disulfide 1-6)
